# Measurements as given in publication PMC4336329 (PLoS ONE, 2015).
# About 2,200 (0.71%) of roughly 310,000 compounds showed an effect of 50% or more. The effect is printed as a negative number. The list shows a part of the results.
# Target: human ether-à-go-go-related gene (hERG) potassium channel (human, UniProt Q12809)
# Assay: primary screen, population patch clamp on CHO cells stably expressing hERG
# Sequence of human ether-à-go-go-related gene (hERG) potassium channel (Q12809 whole entry, looked up): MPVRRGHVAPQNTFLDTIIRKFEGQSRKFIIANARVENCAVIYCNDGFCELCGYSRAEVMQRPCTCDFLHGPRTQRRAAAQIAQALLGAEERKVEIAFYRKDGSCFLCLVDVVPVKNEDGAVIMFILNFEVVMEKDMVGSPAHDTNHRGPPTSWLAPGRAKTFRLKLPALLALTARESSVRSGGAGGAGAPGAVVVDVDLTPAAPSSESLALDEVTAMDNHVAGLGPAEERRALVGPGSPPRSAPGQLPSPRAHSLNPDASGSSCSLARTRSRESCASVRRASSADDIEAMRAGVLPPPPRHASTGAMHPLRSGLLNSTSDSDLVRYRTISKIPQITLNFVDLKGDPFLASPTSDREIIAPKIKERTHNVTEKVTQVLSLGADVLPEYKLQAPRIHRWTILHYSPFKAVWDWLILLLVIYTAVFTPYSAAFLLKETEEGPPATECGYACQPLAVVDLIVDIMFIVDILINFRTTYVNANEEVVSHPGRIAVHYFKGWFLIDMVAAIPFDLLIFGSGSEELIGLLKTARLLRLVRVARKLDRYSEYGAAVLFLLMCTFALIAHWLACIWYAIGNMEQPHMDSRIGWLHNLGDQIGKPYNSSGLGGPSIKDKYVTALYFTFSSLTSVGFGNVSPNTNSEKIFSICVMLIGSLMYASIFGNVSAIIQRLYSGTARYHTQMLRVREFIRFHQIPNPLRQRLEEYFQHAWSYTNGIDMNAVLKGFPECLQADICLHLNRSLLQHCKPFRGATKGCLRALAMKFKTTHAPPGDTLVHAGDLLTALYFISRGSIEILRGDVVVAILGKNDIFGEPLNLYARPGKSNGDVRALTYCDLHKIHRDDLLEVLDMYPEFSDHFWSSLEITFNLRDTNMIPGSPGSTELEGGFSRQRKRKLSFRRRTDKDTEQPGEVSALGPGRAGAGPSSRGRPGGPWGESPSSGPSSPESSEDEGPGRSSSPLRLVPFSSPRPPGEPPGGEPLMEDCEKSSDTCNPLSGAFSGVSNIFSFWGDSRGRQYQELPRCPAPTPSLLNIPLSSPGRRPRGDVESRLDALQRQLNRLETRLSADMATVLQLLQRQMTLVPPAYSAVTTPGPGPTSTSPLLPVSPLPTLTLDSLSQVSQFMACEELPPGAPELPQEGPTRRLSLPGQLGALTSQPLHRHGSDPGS
row,Compound,"hERG current change (%, negative = inhibition) at 1uM [%]"
1,CC(C)NC(=S)NN=C1CCCCCCCCCCC1,6.64
2,CCNC(=O)CSc1nc(-c2ccccc2)cs1,10.7
3,CCO[C@@H]1OC(C(N)=O)=C[C@H](c2ccc3c(c2)OCO3)[C@H]1CCCO,9.07
4,CC(=O)c1ccc(N2CCN(C(=S)NCCCN(C)C)CC2)cc1,5.89
5,Brc1ccccc1CN1CCN(Cc2c[nH]c3ccccc23)CC1.O=C(O)C(=O)O,13.6
6,Cc1cc(C)nc(SCc2nnc(SCc3ccccc3Cl)o2)n1,13.9
7,CCn1nc(C)c(/C=N/NC(=O)Cn2cncn2)c1C,15.5
8,CCOc1ccc(NC(=O)CC2C(=O)Nc3ccccc3N2C(=O)c2ccccc2)cc1 (stereo not shown),-7.65
9,O=C1C2CCCN2C(c2ccc(F)c(F)c2)N1c1cccc(Cl)c1 (stereo not shown),-3.19
10,O=C(Nc1ccc(S(=O)(=O)NCC2CCCO2)cc1)c1cnccn1 (stereo not shown),14.1
11,O=C(O)COc1ccccc1/C=C1\SC(=O)N(Cc2ccc(F)cc2)C1=O,-3.1
12,O=S(=O)(Nc1ccc2c(c1)OCO2)c1cccc(Br)c1,8.92
13,CCOC(=O)CN(C(=O)CSc1nnc(-c2ccc(OC)c(OC)c2)o1)c1ccccc1,4.75
14,COc1ccc(-c2c(-c3ccc(OCC(=O)NN)cc3O)n[nH]c2C(F)(F)F)cc1,3.42
15,CCOc1ccccc1CNCc1ccc(F)cc1.Cl,7.9
16,Cc1ccc(-c2cn(-c3ccccc3)c(=S)[nH]2)cc1C,12.8
17,CN1CCN(c2nc3c(c(=O)n(C)c(=O)n3C)n2Cc2ccccc2F)CC1,4.13
18,Cc1ccc(NC(=O)N2CCCCC2)cc1[N+](=O)[O-],13.9
19,O=C(CSc1nnc2ccc(-c3cccnc3)nn12)Nc1ccc(F)cc1,-39.3
20,COc1ccc(Cc2nnc(N)s2)cc1OC,4.83

row,Compound,"hERG current change (%, negative = inhibition) at 1uM [%]"
1,CCCCn1c(N)c(N(CCC(C)C)C(=O)C2=NN(c3cc(C)ccc3C)C(=O)CC2)c(=O)[nH]c1=O,8.06
2,CN(C(=O)c1ccc(S(=O)(=O)N2CCCC2)cc1)C1CCS(=O)(=O)C1 (stereo not shown),10.8
3,C#CCOc1ccc2c3c(c(=O)oc2c1)CCCC3,15.3
4,COc1ccc(NC(=O)CN2CCN(CC#N)CC2)cc1,-44.9
5,Cc1ccc(N/N=C/c2ccc3c(c2)OCCO3)cc1Cl,3.76
6,COc1ccc(N2C(=O)CC(Sc3ncccc3C(=O)O)C2=O)cc1 (stereo not shown),11.2
7,CN(C(=O)c1ccccc1-c1ncc[nH]1)C1CCCN(Cc2ccccc2F)C1 (stereo not shown),10.3
8,Cc1cc(C)c(C(=O)COC(=O)c2cccc(S(=O)(=O)NCc3ccccc3)c2)cc1C,0.192
9,Nc1nc(Nc2ccccc2F)nc(NC2CCCCC2)c1[N+](=O)[O-],11.8
10,CCOC(=O)CC1C(=O)NCCN1C(=O)Nc1ccccc1 (stereo not shown),4.87
11,CCOC(=O)CC1C(=O)NCCN1C(=O)c1ccc(F)cc1F (stereo not shown),0.319
12,Cn1c(NC(=O)/C=C/c2ccco2)cc(=O)n(C)c1=O,11.9
13,Cc1nc2cc(NS(=O)(=O)c3c(C)c(C)cc(C)c3C)ccc2s1,5.6
14,Cc1ccc(Nc2nc(C(=O)NCC3CCCO3)cs2)cc1 (stereo not shown),2.78
15,c1ccc(CCc2nn3c(C4COc5ccccc5O4)nnc3s2)cc1 (stereo not shown),1.42
16,Cc1onc(-c2ccccc2)c1C(=O)N/N=C/c1c[nH]c2ccccc12,15.2
17,COc1ccccc1CNC(=O)CN(c1ccc(C)cc1)S(=O)(=O)c1c(C)nn(C)c1C,-6.7
18,CCc1ccc(C(=O)CSc2ncn[nH]2)cc1,4.26
19,COc1ccc2cc(Br)ccc2c1CC(=O)N(C)C,6.8
20,CCCS(=O)(=O)c1c(S(=O)(=O)CCC)c2c(C(N)=O)cccn2c1C(=O)c1ccc(F)cc1,13.4

row,Compound,"hERG current change (%, negative = inhibition) at 1uM [%]"
1,COC(CC(=O)NNC(=S)Nc1ccccc1)OC,2.82
2,S=c1nc(C23CC4CC(CC(C4)C2)C3)[nH][nH]1,11.6
3,CC(C)(C)n1cc(C(=O)c2ccccc2OCCCF)cn1,4.39
4,COc1ccc(S(=O)(=O)Nc2c(F)cccc2F)cc1,5.22
5,O=C(NCc1cccnc1)c1ccc(-c2cc3ccccc3oc2=O)cc1,12.4
6,Cc1cccc(OCC(=O)Nc2ccncc2)c1,6.41
7,CCOC(=O)c1ccc(NC(=S)N(CCN(C)C)C(C)c2ccncc2)cc1 (stereo not shown),5.67
8,O=C(O)C(=O)O.O=[N+]([O-])c1cccc(OCCN2CCC(Cc3ccccc3)CC2)c1,-23.6
9,CCOC(=O)c1cc2c(C)n(-c3ccc(OCC)cc3)c(C)c2cc(C(=O)OCC)c1=O,6.57
10,CSc1nnc(CCNC(=O)OC(C)(C)C)o1,13.5
11,Cc1c(OC(C)C(=O)NCC(O)c2ccccc2)ccc2c3c(c(=O)oc12)CCC3 (stereo not shown),18.3
12,Cn1cnnc1SCC(=O)c1cccc([N+](=O)[O-])c1,1.03
13,Cc1ccccc1Sc1ncnc2onc(C)c12,12.8
14,COc1ccc(Nc2cc(C(=O)NCCCOC(C)C)c3ccccc3n2)c(OC)c1,13.1
15,O=C(CCn1c(=O)c2ccccc2n(Cc2cccc([N+](=O)[O-])c2)c1=O)N1CCc2ccccc2C1,-4.9
16,CCC(O)(CC)C(=O)N(Nc1ccc(C)cc1)c1ccc(C)cc1,17.7
17,O=C(N[C@@H](Cc1ccccc1)C(=O)NC1CCCCCC1)c1ccco1,25.7
18,Cc1cc(C)nc(NC(=O)C(c2ccccc2)c2ccccc2)c1,12.6
